# Test results as given in patent US11178870B2 (priority 2017, dated 2021).
# Key:
# Phytophthora infestans = format: in vivo; conditions: for Test F control value (late blight on tomato): class of control value, Table 7
# [1] = test system: Colletotrichum orbiculare; conditions: for Test H control value (anthracnose on cucumber): 250 ppm spray, 2.5 ml/pot, investigated 6 to 10 days after inoculation
# Magnaporthe grisea = format: in vivo; conditions: class of control value, Table 7
Compound,"control value, Test F (late blight on tomato) (Phytophthora infestans; Table 7, Test F)","control value, Test H (anthracnose on cucumber) ([1]; 250 ppm sprayed (2.5 ml/pot) before inoculation, assessed 6 to 10 days after inoculation)",Test F control value (late blight on tomato) (Phytophthora infestans),Test H control value (anthracnose on cucumber) [1],Test A control value (blast on rice) (Magnaporthe grisea)
CCn1c(-c2ccc(OC)cc2Br)c(-n2cc(F)cn2)cc(Cl)c1=O [Compound 355],L (L shows the control value of 50% or less),H (H shows the control value more than 50%),,,
CCn1c(-c2c(F)cccc2F)c(-c2sccc2Cl)cc(Br)c1=O [Compound 397],,,L (L shows the control value of 50% or less),H (H shows the control value more than 50%),H (H shows the control value more than 50%)
CCn1c(-c2ccc(F)cc2Cl)c(-c2ccsc2Cl)ccc1=O [Compound 458],,,L (L shows the control value of 50% or less),H (H shows the control value more than 50%),H (H shows the control value more than 50%)
